Assay results: PubChem BioAssay AID1468 (National Center for Advancing Translational Sciences (NCATS), 2008)
Screen size: about 280,000 compounds; about 1,100 (0.39%) were called active. Inconclusive means that the source gave no clear call. Such entries were picked first, then a sample of the others. Calls follow the shape of the dose curve; as a rule, active = well fitted inhibition curve with a large enough effect; inconclusive = small, poorly fitted or top-dose-only effect, or effect the other way; inactive = flat fitted curve, though single readings scatter. A potency beside an inconclusive call is a rough fit, not a confirmed value.

The compounds below were run against Microtubule-associated protein tau (Homo sapiens) (UniProt P10636) (assay: qHTS for Inhibitors of Tau Fibril Formation, Fluorescence Polarization). Settings: K18 P301L tau heparin fibrillization, Alexa594 FP, 6 h; series mostly up to 57.7 µM; activity, negative = inhibition: at the top concentration.
Sequence of UniProt P10636 (P10636 whole entry, looked up, the tested form may be a part): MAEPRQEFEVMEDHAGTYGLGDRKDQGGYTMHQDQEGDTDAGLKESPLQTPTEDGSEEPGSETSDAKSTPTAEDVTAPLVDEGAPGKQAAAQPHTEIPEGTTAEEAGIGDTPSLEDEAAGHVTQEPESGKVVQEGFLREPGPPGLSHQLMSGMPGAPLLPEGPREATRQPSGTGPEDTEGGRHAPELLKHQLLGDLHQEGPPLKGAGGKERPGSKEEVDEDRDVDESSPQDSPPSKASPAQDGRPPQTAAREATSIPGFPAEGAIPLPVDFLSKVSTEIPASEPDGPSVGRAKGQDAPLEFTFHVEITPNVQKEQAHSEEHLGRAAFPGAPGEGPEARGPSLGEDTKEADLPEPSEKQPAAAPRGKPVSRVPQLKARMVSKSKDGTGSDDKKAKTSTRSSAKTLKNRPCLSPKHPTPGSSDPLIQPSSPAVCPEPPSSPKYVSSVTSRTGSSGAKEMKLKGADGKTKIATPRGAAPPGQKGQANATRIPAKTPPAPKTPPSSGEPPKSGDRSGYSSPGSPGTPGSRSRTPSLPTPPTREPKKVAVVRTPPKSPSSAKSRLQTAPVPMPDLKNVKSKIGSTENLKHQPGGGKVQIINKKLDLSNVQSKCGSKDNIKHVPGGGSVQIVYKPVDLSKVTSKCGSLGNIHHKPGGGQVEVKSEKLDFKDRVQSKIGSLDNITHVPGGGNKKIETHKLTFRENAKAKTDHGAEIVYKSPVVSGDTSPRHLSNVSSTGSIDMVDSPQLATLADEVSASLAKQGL
How it was run: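 Human tau K18 […] P301L fragment, 15 uM unlabeled plus 0.24 uM Alexa 594-labeled tau (final), with compound and 20 uM heparin in 100 mM sodium acetate pH 7; 6 hr at 37 C, then Alexa 594 FP read.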
% is scaled to controls: 0 for no effect and ±100 for the full control effect; potency is read from the fitted curve at half-maximal effect; tags tell the direction and shape of the fitted curve.
Also: nearly all actives have a fitted effect of over 55% in size.

activity, negative = inhibition, inactive:
CC(C)C(=O)N1CCN(c2ccc(NC(=O)c3ccc(Br)o3)cc2)CC1 0.971%
O=C(Cn1c(=O)c2cccn2c2ccc(F)cc21)NCc1cccc(Cl)c1 -17.2%
Cc1cc(NC(=O)CSc2nc3c(c(-c4cccnc4)c2C#N)CCC3)no1 -6.02%
O=C(O)c1ccc(COc2ccc(/C=N/NC(=O)c3cccs3)cc2)cc1 -12.2%
Cc1ccccc1OC(=O)n1c(=S)oc2cc(Cl)ccc21 5.55%
Cc1ccc(NC(=O)N2CCC(N3CCN(Cc4ccccc4)C(=O)C3=O)CC2)cc1Cl -14.4%
CCOC(=O)N1CCc2c(sc3c2c(=O)n(CCc2ccccc2)c(=O)n3Cc2cc(C)ccc2C)C1 -3.62%
Cc1ccc(C)c2[nH]c(=O)c(CN(CC3CCCO3)C(=S)NCc3ccco3)cc12 (configuration not stated) -5.78%
O=C(Cc1cccc2ccccc12)NN1C(=O)CSC1=S -7.41%
CC1CCc2nc(N)c(C#N)c(-c3cccnc3)c2C1 (configuration not stated) 3.69%
CCOc1ccccc1NC(=O)c1cn(C2CCCC2)c(=O)c2c1c1ccccc1n2C -0.0751%
O=C(O)COc1c(-c2ccco2)oc2ccccc2c1=O 5.06%
Cn1ncc2c(Nc3ccc(O)cc3)nc(Cl)nc21 14.1%
CCOc1ccc(C2c3[nH]c4ccccc4c3CCN2C(=O)Cn2cncn2)cc1 (configuration not stated) 0.869%
COc1cc(C)c(Cl)cc1S(=O)(=O)NCCc1c(C)[nH]c2ccccc12 8.04%
O=C(N/N=C/c1ccc([N+](=O)[O-])o1)c1cc2c(ccc3ccccc32)o1 -8.09%
O=C(NCCO)c1ccccc1O -0.276%
CCOc1cc(/C=N/O)cc(Cl)c1OC -5.1%
Cc1nc(CSc2nnc(N)s2)cs1 6.56%
COc1ccc(NC(=O)c2nc[nH]c2C(=O)N2CCN(C(=O)OC(C)(C)C)CC2)cc1 -2.6%
COc1ccccc1CNC(=O)CCn1c(=O)c2ccccc2n(CC(=O)Nc2ccc(C)cc2)c1=O -2.39%
Cc1ccc(NC(=O)c2cc(N(C)C)ccc2[P+](=O)O)cc1 -2.56%
Cc1cc2oc(C(=O)Nc3ccc(S(=O)(=O)Nc4nccs4)cc3)cc(=O)c2cc1Cl -8.9%
CCN(Cc1ccccc1)c1nc2c(S(=O)(=O)c3ccccc3)nnn2c2ccc(Cl)cc12 -8.08%
O=C(O)Cc1sc(Nc2ccc(Cl)cc2)nc1-c1cccs1 9.1%

Potency, inconclusive:
O=C(COC(=O)c1cc(-c2ccco2)nc2ccccc12)NCc1ccc2c(c1)OCO2 44.7 µM [activator, single point]
Cc1cccc(C)c1NC(=O)CSc1nc(-c2cccs2)cc(C(F)(F)F)n1 0.355 µM [inhibitor, full curve, poor fit]
CN1CCc2c(n(CC(O)CN3C(=O)c4ccccc4S3(=O)=O)c3ccccc23)C1=O (configuration not stated) 4.47 µM [inhibitor, single point]
COc1ccc(NC(=S)N(CCCN2CCOCC2)C(C)c2cc3cccc(OC)c3o2)cc1 (configuration not stated) 44.7 µM [activator, single point]
O=C(Nc1ccc(F)c(Cl)c1)C1CCCN(S(=O)(=O)c2cccc3nsnc23)C1 (configuration not stated) 17.8 µM [inhibitor, partial curve]
Cc1nc2c(c(C)c1CCC(=O)Nc1cccc(C(F)(F)F)c1)c(=O)n(C)c(=O)n2C 28.2 µM [inhibitor, partial curve]
Cc1ccc(CNc2ccc3c(c2)OCO3)c(C)c1 28.2 µM [inhibitor, partial curve]
COC1(OC)C(/C=C/c2ccc(Cl)cc2)C(C#N)(C#N)C1(OC)OC (configuration not stated) 2.51 µM [inhibitor, full curve, poor fit]
COc1ccc(-n2c(=O)c3sc4ccccc4c3n(CC(=O)Nc3cccc(C)c3)c2=O)cc1 35.5 µM [inhibitor, partial curve]
COc1ccc(C2C(C(C)=O)=C(O)C(=O)N2c2ccc(Br)cn2)cc1 (configuration not stated) 39.8 µM [inhibitor, single point]
NCCC[C@@H](CC(=O)N[C@@H]1CCNC[C@H]1C(=O)N[C@H](CC(=O)N[C@@H](CCC(=O)O)CC(=O)O)Cc1ccccc1)NC(=O)C[C@H](Cc1c[nH]c2ccccc12)NC(=O)[C@@H]1CNCC[C@H]1N 44.7 µM [inhibitor, single point]
O=C(Nc1ccc(-c2cc(C(F)(F)F)nn2-c2ccccc2)cc1)c1cccc(F)c1 20 µM [inhibitor, partial curve]
CCc1ccc(NC(=O)CC2C(=O)NCCN2C(=S)Nc2ccccc2)cc1 (configuration not stated) 31.6 µM [inhibitor, single point]
CCOc1ccc(C2c3c(-c4ccc(C)cc4)n[nH]c3C(=O)N2c2ccc(Cl)cc2)cc1 (configuration not stated) 31.6 µM [inhibitor, partial curve]
O=C(CSc1nnc(NC(=O)NC2CCCCC2)s1)Nc1ccccc1F 25.1 µM [inhibitor, single point]
COc1ccc(CCC(=O)Nc2ccc(Cl)c(S(=O)(=O)N3CCCC3)c2)cc1 3.98 µM [inhibitor, single point]
CC1(OC(=O)c2cccs2)C(=O)C=C2C=C(c3ccsc3)OC=C2C1=O (configuration not stated) 0.0251 µM [inhibitor, full curve, poor fit]
Cc1cc(O)c(C(C[N+](=O)[O-])c2ccc(Cl)cc2Cl)c(=O)o1 (configuration not stated) 25.1 µM [inhibitor, partial curve]
Cc1ccc2nsnc2c1NC(=O)c1cncc(Br)c1 3.16 µM [inhibitor, full curve, poor fit]
COc1cccc(NC(=O)Cn2cc(C(=O)C3CCCCC3)c3ccccc32)c1 25.1 µM [inhibitor, partial curve]
CCCCOc1ccc(OC(=O)c2sc3ncn(Cc4cccc(F)c4)c(=O)c3c2C)cc1 14.1 µM [inhibitor, partial curve, poor fit]
COC(=O)c1cc(=O)n(Cc2ccc(F)cc2)c(=NCc2ccc(F)cc2)s1 0.891 µM [inhibitor, full curve, poor fit]
Cc1nc2c3cc(F)ccc3n(Cc3ccccc3)c2s1 14.1 µM [inhibitor, partial curve, poor fit]
Cc1cc(NC(=O)CSc2nc(-c3ccccc3F)nc3c2c(=O)n(C)c(=O)n3C)no1 0.1 µM [inhibitor, full curve, poor fit]
Cc1ccc(-c2nc3n(n2)C(c2ccccc2C)C=C(c2ccc(Cl)cc2)N3)cc1 (configuration not stated) 20 µM [inhibitor, partial curve, poor fit]
CS(=O)(=O)N(CC(=O)NCc1ccncc1)c1ccc(Cl)c(Cl)c1 44.7 µM [inhibitor, single point]
CC(C(=O)Nc1ccccc1)c1ccc(-c2ccccc2)c(F)c1 (configuration not stated) 10 µM [inhibitor, partial curve]
Fc1ccc(-c2nn(-c3ccccc3)cc2CNCc2ccccc2)cc1 15.8 µM [inhibitor, partial curve, poor fit]
COC(=O)C1=C(C(=O)OC)SC2(S1)C(C(=O)OC)=C(C(=O)OC)SC1=C2c2cccc(C)c2NC1(C)C 10 µM [inhibitor, partial curve]
COc1ccc(C)cc1NC(=O)C(OC(=O)c1cc(C)oc1C)c1ccccc1 (configuration not stated) 20 µM [inhibitor, single point]
COc1ccccc1NS(=O)(=O)c1cccc(C(=O)N/N=C/c2c(C)nn(-c3ccccc3)c2N2CCCC2)c1 17.8 µM [activator, partial curve]
COc1cc(C2NC(=O)C(C#N)=C(S)N2c2ccccc2)ccc1OC(C)C (configuration not stated) 28.2 µM [inhibitor, partial curve]
CCCCCn1c(=O)[nH]c2cc(C(=O)Nc3cc(OC)cc(OC)c3)ccc2c1=O 10 µM [inhibitor, partial curve]
CCOc1ccc(NC(=S)N=Nc2c(O)[nH]c3ccccc23)cc1 11.2 µM [inhibitor, partial curve]
CCN1CCN(c2nc(Nc3cc(OC)ccc3OC)nc(Nc3cc(OC)ccc3OC)n2)CC1 0.141 µM [activator, full curve]
COc1ccc(OC)c(NC(=O)c2nnn(Cc3ccccc3C)c2N)c1 39.8 µM [inhibitor, single point]
COc1ccccc1NC(=O)CSc1nc2c(sc3ccccc32)c(=O)n1CCN(C)C 22.4 µM [inhibitor, partial curve]
O=C(Nc1ccccc1F)Nc1cccc2ccc(O)cc12 11.2 µM [inhibitor, partial curve, poor fit]
C=C1C(=O)O[C@@H]2C[C@@H](C)[C@@H]3C=CC(=O)[C@@]3(C)[C@@H](OC(C)=O)[C@H]12 3.16 µM [inhibitor, full curve]
CNC(=O)COc1ccccc1C(=O)Nc1ccc2c(c1)oc1ccccc12 20 µM [inhibitor, partial curve]
Cc1nn(C(C)C(=O)NCCc2ccccc2)c(=O)c2c1sc1ccccc12 (configuration not stated) 28.2 µM [inhibitor, partial curve]

Potency, active:
Cc1ccc(NC(=S)Nc2cccnc2)c(S(=O)(=O)N2CCCCC2)c1 31.6 µM
